Reference: PubChem BioAssay AID2675 (National Center for Advancing Translational Sciences (NCATS), 2010)
Hit rate of the full screen: of about 280,000 compounds, about 100 (0.036%) were called active. The inconclusive results got no clear call from the source; some entries with a clear call stand among them for comparison. The call rests on the fitted dose curve; in most records, active means well fitted inhibition curve with a large enough effect in the signal ratio, with a control signal flat (not every such curve was filed as active); inconclusive means small, poorly fitted or top-dose-only effect, or effect the other way, or a change in a side signal; inactive means no such curve, though single readings can be large or run the other way; the % refers to the signal ratio. Where the call is inconclusive, the potency comes from a doubtful curve fit. A note “side channel” means that the fit belongs to a control or component signal, not to the main read-out.
On the % scale 0 is the no-effect control and ±100 the full control effect; potency means the concentration at half of the fitted maximal effect; tags describe the fitted curve by direction and shape or compound fluorescence and quenching.

Each compound was assayed against Muscleblind-like protein 1 (Homo sapiens) (UniProt Q9NR56) (assay: qHTS Assay for Inhibitors of MBNL1-poly(CUG) RNA binding). Conditions: TR-FRET MBNL1-His/biotin-(CUG)12 binding, 665/545 ratio; activity change, negative = inhibition: at 57.5 µM (top of the series).
UniProt Q9NR56, sequence (Q9NR56 whole entry, looked up): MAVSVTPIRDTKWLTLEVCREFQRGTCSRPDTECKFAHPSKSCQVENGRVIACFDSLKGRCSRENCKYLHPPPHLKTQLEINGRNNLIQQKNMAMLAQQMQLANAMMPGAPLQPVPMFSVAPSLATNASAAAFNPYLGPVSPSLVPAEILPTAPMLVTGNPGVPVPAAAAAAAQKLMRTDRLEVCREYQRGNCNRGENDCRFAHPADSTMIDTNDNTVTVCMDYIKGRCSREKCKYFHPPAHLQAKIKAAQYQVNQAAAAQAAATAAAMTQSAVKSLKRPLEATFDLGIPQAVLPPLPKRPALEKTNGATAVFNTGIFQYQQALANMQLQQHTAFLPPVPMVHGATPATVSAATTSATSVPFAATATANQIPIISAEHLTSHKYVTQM
Summary of the method: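 His-tagged MBNL1 binding to biotinylated (CUG)12 RNA was measured by TR-FRET using terbium anti-His antibody (0.055 ng/ul final) and streptavidin-XL665 (5 nM final). Compounds were titrated 92 nM to 58 uM; 60 min at room temperature.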
With `Cc1ccc(N(CC2CO2)S(=O)(=O)c2ccc([N+](=O)[O-])cc2)cc1` (stereo unspecified) the Potency was inconclusive: 17.8 µM [quencher, partial curve]. `CC(=O)Nc1ccc(NS(=O)(=O)c2ccc(C)cc2)cc1[N+](=O)[O-]` was tested, and the Potency was inconclusive: 15.8 µM [quencher, side channel, partial curve]. With `CC1Cc2nc(SCC(=O)c3ccccc3)n(Cc3ccccc3)c(=O)c2S1` (stereo unspecified) the Potency was inconclusive: 3.98 µM [quencher, side channel, single point]. `Cc1nc2c(O)cccc2cc1CO` was tested, and the “activity change, negative = inhibition” value was inactive: 9.44%. In the case of `Cc1ccc(NCC(=O)N/N=C\c2ccc([N+](=O)[O-])o2)cc1`, the Potency was inconclusive: 10 µM [quencher, side channel, partial curve]. `CCCCC(=O)Nc1cccc2c1C(=O)N(c1ccccc1)C2=O` was tested, and the Potency was inconclusive: 11.2 µM [quencher, side channel, partial curve]. For `Cc1occc1-c1nnc(-c2cc([N+](=O)[O-])cc([N+](=O)[O-])c2)o1`, the Potency was inconclusive: 14.1 µM [quencher, side channel, partial curve]. In the case of `COc1cc(/C=N\Nc2ccc([N+](=O)[O-])cn2)ccc1OCC(=O)O`, the Potency was inconclusive: 39.8 µM [quencher, side channel, single point]. In the case of `COc1cccc(CNS(=O)(=O)c2ccc3c(c2)N(C)CCO3)c1`, the “activity change, negative = inhibition” value was inactive: -6.34%. With `O=C(Nc1ccc(N=Nc2ccccc2)c(NC(=O)C2CCCO2)c1)C1CCCO1` (stereo unspecified) the Potency was inconclusive: 15.8 µM [quencher, side channel, partial curve]. With `Cc1nn(-c2ccccc2)c(N2CCCC2)c1/C=N/NC(=S)Nc1cc(C(F)(F)F)ccc1Cl` the “activity change, negative = inhibition” value was inactive: -7.02%. In the case of `Nc1ccc(N=Nc2ccccc2)c2cccnc12`, the Potency was inconclusive: 14.1 µM [quencher, side channel, partial curve]. `Cc1ccc(S(=O)(=O)NCc2ccc(C(=O)N3CCN(c4ccc([N+](=O)[O-])cc4)CC3)cc2)cc1` was tested, and the Potency was inconclusive: 14.1 µM [quencher, side channel, partial curve]. `COc1ccc(S(=O)(=O)NCCN2CCOCC2)cc1[N+](=O)[O-]` was tested, and the Potency was inconclusive: 22.4 µM [quencher, side channel, partial curve]. With `Cc1c(C(=O)NCCCN2CCOCC2)sc2nc(-c3ccc(F)cc3)cn12` the Potency was inconclusive: 0.158 µM [quencher, side channel, full curve, poor fit]. With `COc1ccc(Cl)c2c1[nH]c1nc(SCc3ccccn3)nnc12` the Potency was inconclusive: 15.8 µM [quencher, side channel, partial curve].
